Source: PubChem BioAssay (NCATS)
Inconclusive results, whose numbers are uncertain, are shown with a selection of clear calls. For part of these data: No potency is given beside an inconclusive call; the fits are too rough. Calls of active or inactive are those of the source. Unless noted, calls follow the shape of the dose curve; as a rule, active = well fitted curve in the direction sought with a large enough effect; inconclusive = small, poorly fitted or top-dose-only effect, or another doubt; inactive = no such curve, though single readings can be large; an effect the other way counts as inactive or inconclusive.

Key:
[1] = biological target: Ubiquitin carboxyl-terminal hydrolase 1 (Homo sapiens) (UniProt O94782); experiment: Inhibitors of USP1/UAF1: Pilot qHTS (AID 504865);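 also: rhodamine fluorescence freed from ubiquitin-rhodamine substrate followed over time; nearly all actives have a fitted effect of over 35% in size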
Sequence of UniProt O94782 (O94782 whole entry, looked up): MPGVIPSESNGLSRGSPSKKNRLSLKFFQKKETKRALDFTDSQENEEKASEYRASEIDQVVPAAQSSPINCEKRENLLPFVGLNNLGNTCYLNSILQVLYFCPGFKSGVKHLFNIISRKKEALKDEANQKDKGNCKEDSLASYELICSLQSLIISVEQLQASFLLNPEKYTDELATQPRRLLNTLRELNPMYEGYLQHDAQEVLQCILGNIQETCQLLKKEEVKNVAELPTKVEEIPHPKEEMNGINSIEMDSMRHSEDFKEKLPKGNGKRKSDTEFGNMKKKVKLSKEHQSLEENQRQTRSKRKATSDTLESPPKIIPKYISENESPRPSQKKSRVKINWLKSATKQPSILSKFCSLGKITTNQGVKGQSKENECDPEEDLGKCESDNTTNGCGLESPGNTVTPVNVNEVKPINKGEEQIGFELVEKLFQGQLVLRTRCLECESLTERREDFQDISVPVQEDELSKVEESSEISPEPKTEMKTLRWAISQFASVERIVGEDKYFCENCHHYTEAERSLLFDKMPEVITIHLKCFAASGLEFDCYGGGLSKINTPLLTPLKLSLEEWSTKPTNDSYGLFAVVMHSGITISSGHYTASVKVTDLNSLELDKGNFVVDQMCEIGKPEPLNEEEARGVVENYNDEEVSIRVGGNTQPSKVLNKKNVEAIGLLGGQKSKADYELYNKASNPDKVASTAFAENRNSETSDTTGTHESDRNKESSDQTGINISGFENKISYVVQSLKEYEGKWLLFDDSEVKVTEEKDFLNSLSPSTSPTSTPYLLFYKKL
Outline: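 1nM USP1/UAF1 + cpd, 15 min RT; start w/ Ub-Rho 150nM final; kinetic FL 480/540 nm, 6 reads q60 s. Buffer 50mM HEPES pH 7.8, 0.5mM EDTA, 1mM TCEP, 0.01% Tween-20, 0.1 mg/ml BSA.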

[2] = tested on: C2A; experiment: qHTS profiling for inhibitors of Plasmodium falciparum proliferation (AID 504749); also: nearly all actives have a fitted effect of over 60% in size;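 as to activity, negative = inhibition: 0% = DMSO vehicle and full inhibition = artemisinin control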; conditions: P. falciparum in erythrocytes, SYBR Green DNA, 72 h; series mostly up to 28.7 µM
Outline: (§1)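 Quantitative HTS: compounds pinned into medium, infected erythrocytes added (0.3% parasitemia, 2.5% hematocrit), 72 h culture at 37 C under 5% CO2. Saponin/Triton lysis with SYBR Green I, overnight RT, then fluorescence read.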

[3] = tested on: CP217; experiment: as above; conditions: P. falciparum in erythrocytes, SYBR Green DNA, 72 h; series mostly up to 28.7 µM
Outline: as §1

[4] = tested on: CP260; experiment: as above; conditions: P. falciparum in erythrocytes, SYBR Green DNA, 72 h; series mostly up to 28.7 µM
Outline: as §1

[5] = tested on: CP268; experiment: as above; conditions: P. falciparum in erythrocytes, SYBR Green DNA, 72 h; series mostly up to 28.7 µM
Outline: as §1

[6] = tested on: DFO2036; experiment: as above; conditions: P. falciparum in erythrocytes, SYBR Green DNA, 72 h; series mostly up to 28.7 µM
Outline: as §1

[7] = tested on: DIV17; experiment: as above; conditions: P. falciparum in erythrocytes, SYBR Green DNA, 72 h; activity, negative = inhibition: at 28.7 µM (top of the series) unless noted
Outline: as §1

[8] = tested on: GB4; experiment: as above; conditions: P. falciparum in erythrocytes, SYBR Green DNA, 72 h; series mostly up to 28.7 µM
Outline: as §1

[9] = tested on: N140; experiment: as above; conditions: P. falciparum in erythrocytes, SYBR Green DNA, 72 h; series mostly up to 28.7 µM
Outline: as §1

[10] = tested on: CRL-7250; experiment: Cytotoxic Profiling of Annotated Libraries Using Quantitative High-Throughput Screening (AID 1296008); conditions: Five cell lines viability, CellTiter-Glo ATP luminescence, 48-72 h; max response: active compounds read low; also: nearly all actives have a fitted effect of over 60% in size; as to max response: % is scaled to controls: 0 for no effect and ±100 for the full control effect
Outline: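 Compounds were pin-transferred onto cells and incubated 48 or 72 hr at 37 degree Celsius, 95% humidity. CellTiter-Glo was added, plates sat 10 min at room temperature, then ATP-coupled luminescence was imaged as the viability read-out.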

[11] = tested on: CAOV3; experiment: Primary qHTS to identify gynecologic anti-cancer compounds using libraries of approved drugs and bioactive compounds (AID 1345084); conditions: Gynecologic cancer cell panel viability, ATPlite luminescence, 48 h; activity change, negative = cytotoxicity: at 57.5 µM (top of the series); also: nearly all actives have a fitted effect of over 55% in size; as to activity change, negative = cytotoxicity: % is scaled to controls: 0 for no effect and ±100 for the full control effect
Outline: (§2)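 Five-point cytotoxicity, 48 h drug exposure at 37 C, 5% CO2, on cells seeded 16 h beforehand. ATP content read by ATPlite luminescence.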

[12] = tested on: SKOV3; experiment: as above; conditions: Gynecologic cancer cell panel viability, ATPlite luminescence, 48 h; series mostly up to 57.5 µM
Outline: as §2

[13] = P-glycoprotein substrates identified in KB-8-5-11 adenocarcinoma cell line, qHTS therapeutic library screen (AID 1346987); also: nearly all actives have a fitted effect of over 65% in size
Outline: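 Compounds are pinned in dose-response onto KB-8-5-11 cells (500 cells/well, colchicine-free medium) and left 72 h at 37 degree C. CellTiter-Glo luminescence then yields AC50 values.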

[14] = biological target: Cytochrome P450 2D6 (Homo sapiens) (UniProt P10635); experiment: Cytochrome P450 family 2 subfamily D member 6 (CYP2D6) small molecule antagonists: luciferase biochemical (cell-free) qHTS assay (AID 1645840; active = well fitted curve in the direction sought with a large enough effect in the repeat runs; inconclusive = weak or mixed curves; inactive = no such curve, though single readings can be large; an effect the other way counts as inactive or inconclusive; also: nearly all actives have a fitted effect of over 55% in size)
Sequence of UniProt P10635 (P10635 whole entry, looked up): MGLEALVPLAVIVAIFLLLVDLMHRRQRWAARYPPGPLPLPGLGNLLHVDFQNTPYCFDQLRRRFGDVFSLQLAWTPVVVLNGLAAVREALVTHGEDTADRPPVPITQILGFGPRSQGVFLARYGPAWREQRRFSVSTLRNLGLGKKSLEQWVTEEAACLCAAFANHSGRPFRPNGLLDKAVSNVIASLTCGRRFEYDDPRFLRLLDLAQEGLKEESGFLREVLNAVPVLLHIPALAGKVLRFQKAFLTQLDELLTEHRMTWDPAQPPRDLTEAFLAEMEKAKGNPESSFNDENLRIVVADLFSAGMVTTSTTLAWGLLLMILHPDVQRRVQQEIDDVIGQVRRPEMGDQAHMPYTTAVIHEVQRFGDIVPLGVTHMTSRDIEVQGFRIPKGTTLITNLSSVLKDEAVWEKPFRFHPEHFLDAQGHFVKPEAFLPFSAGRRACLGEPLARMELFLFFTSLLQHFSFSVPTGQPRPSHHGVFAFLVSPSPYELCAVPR
Outline: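 P450-Glo CYP2D6 system: proluciferin substrate converted by enzyme to luciferin, read by luminescence proportional to activity. Enzyme-substrate mix with compound 10 min at room temperature, then NADPH regeneration 1 h before detection reagent.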

[15] = biological target: Cytochrome P450 2C9 (Homo sapiens) (UniProt P11712); experiment: Cytochrome P450 family 2 subfamily C member 9 (CYP2C9) small molecule antagonists: luciferase biochemical (cell-free) qHTS assay (AID 1645842; active = well fitted curve in the direction sought with a large enough effect in the repeat runs; inconclusive = weak or mixed curves; inactive = no such curve, though single readings can be large; an effect the other way counts as inactive or inconclusive; also: nearly all actives have a fitted effect of over 55% in size)
Sequence of UniProt P11712 (P11712 whole entry, looked up): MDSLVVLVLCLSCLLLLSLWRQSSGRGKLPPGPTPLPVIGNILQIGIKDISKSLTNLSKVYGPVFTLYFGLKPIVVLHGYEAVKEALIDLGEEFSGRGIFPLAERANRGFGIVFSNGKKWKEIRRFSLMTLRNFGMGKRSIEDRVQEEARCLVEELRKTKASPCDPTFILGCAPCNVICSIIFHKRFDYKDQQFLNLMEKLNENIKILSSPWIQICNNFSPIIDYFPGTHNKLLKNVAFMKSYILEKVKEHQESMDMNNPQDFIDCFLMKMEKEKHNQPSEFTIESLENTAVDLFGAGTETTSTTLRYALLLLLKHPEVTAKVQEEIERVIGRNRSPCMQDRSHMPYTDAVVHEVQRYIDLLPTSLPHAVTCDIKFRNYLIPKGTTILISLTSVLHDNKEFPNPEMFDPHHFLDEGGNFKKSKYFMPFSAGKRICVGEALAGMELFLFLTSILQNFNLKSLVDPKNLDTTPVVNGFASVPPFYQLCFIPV
Outline: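 P450-Glo CYP2C9 system: proluciferin substrate with enzyme in mix containing 0.4% BSA, 10 min at room temperature, then NADPH regeneration solution added and incubated 1 h at 37C. Detection reagent stopped reaction; luminescence read after 20 min as RLU.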

[16] = Primary qHTS for inhibitors of nuclear receptor binding SET domain protein 2 (NSD2) in an RCH-ACV wild type WT cells (2C) (AID 1645877); conditions: activity change, negative = cell killing: at 44.9 µM (top of the series) unless noted; also: nearly all actives have a fitted effect of over 70% in size
[17] = tested on: Zika virus NS2B-NS3 protease (unlinked complex); experiment: Primary screen GU Rhodamine qHTS for Zika virus inhibitors: Unlinked NS2B-NS3 protease assay (AID 1347159); also: nearly all actives have a fitted effect of over 60% in size
Outline: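 Unlinked NS2B/NS3, 25 nM; Rhod110 peptide, 1.5 microM; compounds, up to 114 microM. Reaction run 15 min at RT in 10 mM Tris-HCl pH 8.0, 0.01% Tween 20; kinetic fluorescence change fitted with a 4-parameter Hill model.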

[18] = Primary qHTS for inhibitors of nuclear receptor binding SET domain protein 2 (NSD2) in an isogenic RCH-ACV NSD2 p.E1099K mutant (9B) (AID 1645876); also: nearly all actives have a fitted effect of over 70% in size
[19] = tested on: Zika virus NS2B-NS3 protease (linked construct); experiment: Primary screen NINDS Rhodamine qHTS for Zika virus inhibitors (AID 1347160); conditions: activity change, negative = inhibition: at 57.1 µM (top of the series) unless noted; also: nearly all actives have a fitted effect of over 55% in size
Outline: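 Single-chain NS2B-NS3 protease, 25 nM, pH 8.0; compounds preincubated 15 min. Activity: Rhodamine110 release from 1.5 microM substrate over 15 min, room temperature, data fitted to 4-parameter Hill.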

[20] = Primary fluorescence-based thiol-reactive (MSTI) qHTS assay for identification of artifact compounds. (AID 1845221);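 also: thiol-reactive compounds lower the probe fluorescence signal; nearly all actives have a fitted effect of over 65% in size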
Outline: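 Thiol-reactive compounds detected by quenching of 4 uM MSTI fluorescence (525/598 nm) after 1 h room-temperature dark incubation in PBS pH 7.4, 2% DMSO. qHTS titration; percent inhibition Hill-fitted against Acetyl-MSTI/MSTI controls.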

[21] = tested on: CASKI; experiment: Primary qHTS to identify gynecologic anti-cancer compounds using libraries of approved drugs and bioactive compounds (AID 1345084); conditions: Gynecologic cancer cell panel viability, ATPlite luminescence, 48 h; series mostly up to 57.5 µM; also: nearly all actives have a fitted effect of over 55% in size; as to activity change, negative = cytotoxicity: % is scaled to controls: 0 for no effect and ±100 for the full control effect
Outline: as §2

[22] = tested on: Es-2; experiment: as above; conditions: Gynecologic cancer cell panel viability, ATPlite luminescence, 48 h; series mostly up to 57.5 µM
Outline: as §2

[23] = tested on: Tov-21-G; experiment: as above; conditions: Gynecologic cancer cell panel viability, ATPlite luminescence, 48 h; activity change, negative = cytotoxicity: at 57.5 µM (top of the series) unless noted
Outline: as §2

[24] = Confirmatory screen NINDS Rhodamine qHTS for Zika virus inhibitors (AID 1347161); also: nearly all actives have a fitted effect of over 60% in size
Outline: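 Rhodamine110-peptide cleavage (1.5 µM substrate) by 25 nM linked NS2B-NS3 enzyme at pH 8.0 (Tris, Tween 20), after 15 min RT preincubation with compounds; 15-min fluorescence change normalized to controls and Hill-fitted.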

[25] = Primary redox qHTS assay for identification of artifact compounds. (AID 1845223); conditions: Amplex Red/HRP redox cycling with DTT, fluorescence; redox activity (% of DA3003): at 53.8 µM (top of the series)
Outline: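 Redox-cycling detection via DTT (250 uM final) oxidation coupled to Amplex Red (25 uM)/HRP (250 mU/mL) in HBSS. 15 min preincubation plus 30 min after DTT, room temperature. Ex/Em 525/598 nm; 4-parameter Hill fit against DMSO and 10 uM DA3003.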

[26] = tested on: PA-1; experiment: Primary qHTS to identify gynecologic anti-cancer compounds using libraries of approved drugs and bioactive compounds (AID 1345084); conditions: Gynecologic cancer cell panel viability, ATPlite luminescence, 48 h; series mostly up to 57.5 µM; also: nearly all actives have a fitted effect of over 55% in size; as to activity change, negative = cytotoxicity: % is scaled to controls: 0 for no effect and ±100 for the full control effect
Outline: as §2

[27] = tested on: OV90; experiment: as above; conditions: Gynecologic cancer cell panel viability, ATPlite luminescence, 48 h; series mostly up to 57.5 µM
Outline: as §2
Potency is read from the fitted curve at half-maximal effect; tags tell the direction and shape of the fitted curve.

Cn1c([N+](=O)[O-])cnc1COC(N)=O
Potency [1]: inconclusive [inhibitor, single point] | Potency [2]: inactive | Potency [3]: inactive | Potency [4]: inactive | Potency [5]: inconclusive [inhibitor, single point] | Potency [6]: inactive | Potency [7]: inconclusive [inhibitor, partial curve, poor fit] | Potency [8]: inactive | Potency [9]: inactive | max response [10]: inactive: -9.26% | Potency [11]: inactive | Potency [12]: inactive

CN(C)CCn1cc(-c2ccc(F)cc2)c(-n2cccc2)n1
Potency [13]: inactive | Potency [14]: active: 15.1 µM | Potency [15]: inconclusive [inhibitor, single point] | Potency [16]: inactive | Potency [10]: inconclusive [inhibitor, partial curve, poor fit] | Potency [11]: inconclusive [rising, partial curve, poor fit] | Potency [12]: inconclusive [rising, single point]

CC(C)c1ccc2c(c1)C(=O)CC1C(C)(C(=O)O)CCCC21C (configuration not stated)
Potency [17]: inconclusive [inhibitor, full curve, poor fit] | Potency [18]: inactive | max response [10]: inactive: -5.24% | Potency [11]: inactive

CC(C)c1ccc(CO)cc1O[C@@H]1O[C@H](CO)[C@@H](O)[C@H](O)[C@H]1O
Potency [17]: inconclusive [inhibitor, partial curve, poor fit] | Potency [19]: inconclusive [inhibitor, partial curve, poor fit] | Potency [10]: inconclusive [inhibitor, single point] | Potency [11]: inactive

COC(=O)C1=COC(OC2OC(CO)C(O)C(O)C2O)C2C(COC(=O)/C=C/c3ccc(O)c(O)c3)C(O)C(O)C12 (configuration not stated)
Potency [17]: inconclusive [inhibitor, partial curve] | Potency [19]: inconclusive [inhibitor, single point] | Potency [16]: inactive | Potency [20]: active: 2.51 µM | outcome [10]: inactive | Potency [21]: inactive | Potency [22]: inactive | Potency [12]: inactive

CC(=O)O[C@@H]1C[C@@]23C[C@@]24CC[C@H](OC2OC[C@@H](O)[C@H](O)[C@H]2O)C(C)(C)[C@@H]4CC[C@H]3[C@]2(C)CC3OC4(C[C@@H](C)C3[C@@]12C)OCC1(C)OC14 (some centres not stated)
Potency [16]: inactive | Potency [20]: inactive | max response [10]: inactive: -1.36% | Potency [11]: inactive | Potency [23]: inactive

CO[C@H]1c2cc(C(C)C)c(O)c(O)c2[C@@]23CCCC(C)(C)C2[C@@H]1OC3=O (some centres not stated)
Potency [17]: inconclusive [inhibitor, full curve] | Potency [19]: inactive | Potency [24]: inconclusive [inhibitor, partial curve] | Potency [16]: inconclusive [inhibitor, single point] | Potency [25]: inconclusive [activator, partial curve, poor fit] | outcome [10]: inactive | Potency [11]: inconclusive [cytotoxic, single point] | Potency [26]: inactive

COc1ccc([C@@H]2N[C@H](C(=O)O)Cc3c2[nH]c2ccccc32)cc1CN1CCN(c2ccccc2F)CC1
Potency [17]: inconclusive [inhibitor, partial curve] | Potency [19]: inactive | Potency [14]: active: 13.5 µM | Potency [18]: inactive | Potency [16]: inactive | max response [10]: inactive: -3.7% | Potency [11]: inconclusive [cytotoxic, single point] | Potency [27]: inactive

COc1cccc(C(=O)NCCNc2nc3cc(C)cc(C)c3cc2C#N)c1
Potency [14]: inconclusive [inhibitor, partial curve] | Potency [18]: inconclusive [inhibitor, partial curve] | max response [10]: inactive: -1.46% | Potency [11]: inactive

CC1=C(COC2OC(CO)C(O)C(O)C2O)C(C(CO)C(=O)O)CC1 (configuration not stated)
Potency [16]: inactive | Potency [20]: inconclusive [inhibitor, partial curve] | max response [10]: inactive: 2.58% | Potency [11]: inconclusive [rising, partial curve, poor fit]

CNC(C)C(=O)NC(C(=O)N1CCCC1c1nc(C(=O)c2ccc(F)cc2)cs1)C1CCCCC1 (configuration not stated)
Potency [13]: inconclusive [inhibitor, partial curve] | Potency [19]: inactive | Potency [18]: inconclusive [inhibitor, single point] | Potency [16]: inconclusive [inhibitor, single point] | Potency [10]: inconclusive [inhibitor, single point] | Potency [11]: inconclusive [cytotoxic, single point] | Potency [12]: inconclusive [cytotoxic, full curve, poor fit] | Potency [23]: inconclusive [cytotoxic, full curve]
